To fix the notation:
B1: ENSG00000174780:stop:overlap|stop_codon|ENSG00000174780|stop_codon|NA|stop_codon (ssRNA)
RNA: GGGAGUUCUACAGUCCGACGAUCAAGCUGAAGGUUGGAAGUUUGUUAAACUUAUCUGUAAAUAUAACGUGCAUAUAACUUUGUAGAGUAUCUUCUAAAAUUGCAUUUGACUUCUGUGAAAUUAUUAAAUGGAAGUUAUUGAUGCAACAGAGGAUUGAGCAUCA
B2: chr2:216672738:216672882:-|3pUTR|ENSG00000115461|msi1|FALSE|unique (ssRNA)
RNA: GGGAGUUCUACAGUCCGACGAUCUUCUCUUAGGCUUUUGUUUCUAUUUCAAACAUACUUUCUUGGUUUUCUAAUGGAGUAUAUAGUUUAGUCAUUUCACAGACUCUGGCCUCCUCUCCUGAAAUCCUUUUGGAUGGGGAAAGGCAACAGAGGAUUGAGCAUCA
B3: chr2:42682433:42682535:+|CDS|ENSG00000057935|unk|FALSE|unique (ssRNA)
RNA: GGGAGUUCUACAGUCCGACGAUCUCACGCUAUGGAUACAUUGUAUAGACACAGCUAUGAUUUGAGCAGUGCCAUUAGUGUCUUAGUACCACUCGGAGGACCUGUUUUAUGCAGAGAUGAAAUGGAGGAAUGGUCAGCCUCUGACAACAGAGGAUUGAGCAUCA
B4: chr7:73478266:73478367:-|CDS|ENSG00000009954|unk|total|mutant (ssRNA)
RNA: GGGAGUUCUACAGUCCGACGAUCGAGUGGCUCGCCACUCAAAGUGAAGAACUCAAAGAAUUCCAAAUCUCCUGAAGAACAUCCCGAAGAAAUGAUGAAGAUGAUGUCGCCCAAUAAGCUGCACACUAACUUUCACAUUCCUAACAACAGAGGAUUGAGCAUCA
B5: chr21:43695798:43695899:+|3pUTR|ENSG00000160208|msi1|total|mutant (ssRNA)
RNA: GGGAGUUCUACAGUCCGACGAUCACAAUAUUUUGUAAAAUGAUGCUUCCCCCUUCUCCAUGGUCCCGUCAAUUUUGUACAAUCCGGUAUCUGACUUUACAAGUUUGUUAUCCUUUCUAAUUUUUACUGAACUGAAAGCACAAACAACAGAGGAUUGAGCAUCA
B6: ENSG00000187498:stop:overlap|stop_codon|ENSG00000187498|stop_codon|NA|stop_codon (ssRNA)
RNA: GGGAGUUCUACAGUCCGACGAUCAGGUGAACCGGGACCUCCUGGAUUGCCAGGCUCCGUGGGGUCUCCAGGAGUUCCAGGAAUAGGCCCCCCUGGAGCUAGGGGUCCCCCUGGAGGACAGGGACCACCGGGGUUGUCAGGCCCCAACAGAGGAUUGAGCAUCA
B7: chr6:122456482:122456612:-|CDS|ENSG00000111897|unk|FALSE|unique (ssRNA)
RNA: GGGAGUUCUACAGUCCGACGAUCUGCUUUGGUUUGGCUAUGUUCUAUCUUCUUCUCUCUUUACUAAUGAUCAAAGUGAAGAGUAGCAGUGAUCCUAGAGCUGCAGUGCACAAUGGGUAAGUUUUUAAAUAAGCUUCAAUAUAACAACAGAGGAUUGAGCAUCA
B8: chr5:96979339:96979440:+|CDS|ENSG00000113441|unk|total|mutant (ssRNA)
RNA: GGGAGUUCUACAGUCCGACGAUCGAGGAGGAUGAAGAGGAUUAUGAGUCAUCAGCAAAGCUGCUGGGCAUGUCCUUCAUGAACCGAAGCUCAGGCCUUCGGAACAGUGCAACUGGUUACAGGCAGAGCCCAGAUGGGGCUUGUCAACAGAGGAUUGAGCAUCA
B9: chr17:78107396:78113211:-|three_prime_utr|ENSG00000141524|control|control|control (ssRNA)
RNA: GGGAGUUCUACAGUCCGACGAUCUUGGGACAACCGAGGAGGCUGCGGCACCCCCUGCCCUGCUCACAGAUGAACAGGAUGCCUAGGGGGACGGCGAUGGGCCUCACGGGCCCGCCCAGCACCCUGAGACCACACUGUUGCCUCCAACAGAGGAUUGAGCAUCA
B10: ENSG00000160209:stop:overlap|stop_codon|ENSG00000160209|stop_codon|NA|stop_codon (ssRNA)
RNA: GGGAGUUCUACAGUCCGACGAUCCCUUGACCUCCUGGGCUGAAGCAAUCUUUCUGCCUCCACCUCCCGAGUGGCUGGGACUAUAGUUGUGCACCAGCACGCCCACCUCCUGCCCAGGGUUGUUACUGGGGUGGUCACGUGGGCCAACAGAGGAUUGAGCAUCA
B11: chr5:173316221:173316322:-|3pUTR|ENSG00000113739|msi1|FALSE|unique (ssRNA)
RNA: GGGAGUUCUACAGUCCGACGAUCAGUACUUUCAGUUUGGCGAGCCGUGAGGUCUCUGUCGAAACUACUCAACUCUGCCGUCCUAGCACAAAAGCAGCCAUAGACAACACACAAACGAGAGGGCUUGGCUCCCUUCCAGGAAGACAACAGAGGAUUGAGCAUCA
B12: chr2:96301550:96301651:-|CDS|ENSG00000144028|msi1|FALSE|unique (ssRNA)
RNA: GGGAGUUCUACAGUCCGACGAUCAAGGCGAAAGGAGAUUGACCUGCUGCUGGGUCAAACAGAUGAUACCAGAUACCAUGUGCUAGUGAACCUGGGCAAAAAGAUCACAGACUAUGGUGGAGAUAAGGAAAUCCAAAAUAUGGGCAACAGAGGAUUGAGCAUCA
B13: chrX:106900062:106900748:-|three_prime_utr|ENSG00000147223|control|control|control (ssRNA)
RNA: GGGAGUUCUACAGUCCGACGAUCGAGGCAGCCAGAGUCUGAUUGGGGUUCAGUUUGUCUGGCAAGUUUUCACAGACAUCAGUUAGCCGGAAGUAUUAGUCCAGCAGAUAGAGCUUUCUGGACUGAAAAUUGGGUCAUCUAGCUCAACAGAGGAUUGAGCAUCA
B14: chr9:101390727:101390839:-|CDS|ENSG00000136897|unk|total|mutant (ssRNA)
RNA: GGGAGUUCUACAGUCCGACGAUCCAGAAAAGAGAAAGAGCCAGUGGUUGUUGAGACAGCCGAAGAGAAAAAGGAACCUAUCCCCGUGUGUCCACCUUUACGAAGCCGAGCAUACACACCACCUGAAGAUCUCCAGAGUCGUUUCAACAGAGGAUUGAGCAUCA
B15: ENSG00000136451:be:win_2901|3pUTR|ENSG00000136451|bound_else_gene|NA|bound_elsewhere_windowed (ssRNA)
RNA: GGGAGUUCUACAGUCCGACGAUCUCUUUACACCAUCAUGCCACGCAUUGUUUUUAAAGCAUUGCGUUAAAAAAAAAAUUAACUAAACCAAGAUGCUGUGAUUUUUUAAGUUGCAAUAUGUUUUUGGUUUUUUUCAUUUUUUAACAACAGAGGAUUGAGCAUCA
B16: chr1:202941098:202941199:-|3pUTR|ENSG00000159346|msi1_unk|FALSE|overlapping (ssRNA)
RNA: GGGAGUUCUACAGUCCGACGAUCCCUCCCUUACCCCCAUCCUUAACUUUGUAUCCUGGCUUAUAACAGGCCAUCCAUUUUUGUAGCACACUUUUCAAAAACAAUUAUAUACCCUGGUCCCAUCUUUCUAGGGCCUGGAUCUGCCAACAGAGGAUUGAGCAUCA
B17: ENSG00000198589:be:win_1601|CDS|ENSG00000198589|bound_else_gene|NA|bound_elsewhere_windowed (ssRNA)
RNA: GGGAGUUCUACAGUCCGACGAUCAGUCUUCCAAAUCUCAUGUUAGCAGAGCAGUACUUGAACUUUGCCUUGCAUUUUCAAAAUAUCUGAGUAAUCUGCAGAAUGGGAUGCCCCUGCUCAAGCAAUUGUGUGAUCACGUUCUUCCAACAGAGGAUUGAGCAUCA
B18: ENSG00000116560:stop:overlap|stop_codon|ENSG00000116560|stop_codon|NA|stop_codon (ssRNA)
RNA: GGGAGUUCUACAGUCCGACGAUCCAGCAGGAUAUGGUAGAGGGAGAGAAGAGUACGAAGGCCCAAACAAAAAACCCCGAUUUUAGAUGUGAUAUUUAGGCUUUCAUUCCAGUUUGUUUUGUUUUUUUGUUUAGAUACCAAUCUCAACAGAGGAUUGAGCAUCA
B19: chr2:226864888:226864989:+|CDS|ENSG00000144468|unk|total|mutant (ssRNA)
RNA: GGGAGUUCUACAGUCCGACGAUCUGCUGAUGAUUGGCAUUUGUAUUUCAAUAUGGCAUCCAUGCUCUGGAAAGGAAUAAAUCCCGAAAGAAGACUGGGAAGCCGAUGGUUUGCCUAUGUUAUCACCGCAUUUUCUGUACUUACCAACAGAGGAUUGAGCAUCA
B20: chr4:24540214:24540319:-|CDS|ENSG00000109606|unk|total|mutant (ssRNA)
RNA: GGGAGUUCUACAGUCCGACGAUCUACUUUGUCACAUUUUUGCUUGCUUAAGGCACCGUGUCUAACCGAUUGUCUUUUACCACCCGCUCCUGAAACUCUGAUGAGAGCCCUGGAACUUUUGAAUUACCUGGCUGCUUUAAAUGACAACAGAGGAUUGAGCAUCA
B21: chr11:70485313:70487720:-|CDS|ENSG00000162105|control|control|control (ssRNA)
RNA: GGGAGUUCUACAGUCCGACGAUCUGGGGCGACGUCACAGAGAUCAAAAGCCCGAUUCUCUCAGGCCCAAAGGCAAACGUUAUUAGUGAAUUGAACUCUAUCCUACAGCAAAUGAACCGAGAGAAAUUGGCAAAGCCGGGGGAACAACAGAGGAUUGAGCAUCA
B22: ENSG00000198589:be:win_1451|CDS|ENSG00000198589|bound_else_gene|NA|bound_elsewhere_windowed (ssRNA)
RNA: GGGAGUUCUACAGUCCGACGAUCAUUACAGGCAAUAUUUGUCUGAUGAGAUUGAUUUGACUAUAUGUUCAACCUUGCUGGCCUUUAUCAUGGAAUUGUUGAAGAACUCAAUUGCUAUGCAGGAACAGAUGCUUGCCUGUAAGGCAACAGAGGAUUGAGCAUCA

The list shows a part of the results.

In the assay the target is MSI1 full-length (mouse, UniProt Q61474 1-362). Kind of assay: nsRBNS (natural sequence RNA bind-n-seq); RBNS binding buffer (assumed for nsRBNS): 25 mM Tris pH 7.5, 150 mM KCl, 3 mM MgCl2, 0.01% Triton X-100, 500 ug/ml BSA, 20 U/ml SUPERase-In, 4 C; UNK is unkempt and MSI1 is Musashi-1; names of the RNAs are library labels; protein concentration not given here; high values mean tight binding.
Sequence of UniProt Q61474 (Q61474 whole entry): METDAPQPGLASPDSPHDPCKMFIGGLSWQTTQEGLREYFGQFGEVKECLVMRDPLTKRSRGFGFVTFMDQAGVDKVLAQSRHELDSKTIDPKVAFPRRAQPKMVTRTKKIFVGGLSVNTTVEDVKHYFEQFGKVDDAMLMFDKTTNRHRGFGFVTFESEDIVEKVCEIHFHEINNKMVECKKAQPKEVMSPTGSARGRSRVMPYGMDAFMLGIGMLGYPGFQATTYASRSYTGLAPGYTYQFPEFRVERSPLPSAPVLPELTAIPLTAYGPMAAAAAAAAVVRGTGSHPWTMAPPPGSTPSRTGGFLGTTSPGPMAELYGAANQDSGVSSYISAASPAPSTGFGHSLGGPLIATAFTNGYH
Regarding B1, the binding signal came to 0.786 enrichment R.

The molecule B2 returned a binding signal of 3.74 enrichment R.

Turning to B3, the binding signal is 0.568 enrichment R.

Turning to B4, the binding signal came to 0.187 enrichment R.

In turn, B5 displayed a binding signal of 0.493 enrichment R.

Molecule B6 gave a binding signal of 0.496 enrichment R.

As for B7, the binding signal was found to be 0.498 enrichment R.

B8 gave a binding signal of 0.381 enrichment R.

On to B9, for which the binding signal is 0.328 enrichment R.

In the case of B10, the binding signal came to 0.291 enrichment R.

Regarding B11, the binding signal came to 1.08 enrichment R.

For B12, the binding signal turned out to be 0.411 enrichment R.

For B13, the binding signal came out at 1.26 enrichment R.

B14 gave a binding signal of 0.529 enrichment R.

B15: the binding signal came to 0.269 enrichment R.

Turning to B16, the binding signal is 6.23 enrichment R.

On to B17, for which the binding signal worked out at 0.24 enrichment R.

B18 yielded a binding signal of 0.493 enrichment R.

As to B19, the binding signal came out at 0.203 enrichment R.

B20 registered a binding signal of 0.272 enrichment R.

For the molecule B21, the binding signal stood at 0.762 enrichment R.

For B22, the binding signal amounted to 0.173 enrichment R.
